This experiment has as its target Peptide-N-BSA (human cytomegalovirus). Briefly: ELISA, Peptide-N-BSA coated.

B1: US28-4-2F5B11 (antibody, mouse IgG1, kappa)
heavy: EVQLQESGAELAKPGASVKMSCKASGYTFSSYWIHWIKQRPGQGLEWIGYINPNTAYTEFNQKFMDKATLTADKSSSTAYMQLTSLTSEDSAVYYCARLRSDRTGFAYWGQGTLVTVSAAKTTPPSVYPLAPGSAAQTNSMVTLGCLVKGYFPEPVTVTWNSGSLSSGVHTFPAVLQSDLYTLSSSVTVPSSTWPSETVTCNVAHPASSTKVDKKIVPRDCGCKPCICTVPEVSSVFIFPPKPKDVLTITLTPKVTCVVVDISKDDPEVQFSWFVDDVEVHTAQTQPREEQFNSTFRSVSELPIMHQDWLNGKEFKCRVNSAAFPAPIEKTISKTKGRPKAPQVYTIPPPKEQMAKDKVSLTCMITDFFPEDITVEWQWNGQPAENYKNTQPIMDTDGSYFIYSKLNVQKSNWEAGNTFTCSVLHEGLHNHHTEKSLSHSPGK
light: QIVLTQSPSSLAVSVGEKVTMS[about 80 residues not printed][about 120 residues not printed]
For B1, the absorbance is 2.8.

B2: US28-4-4H3C3 (antibody, mouse IgG1, kappa)
heavy: QVQLQQSGAELAKPGASVKMSCKASGYTFTSYWMHWVKQRPGQGLEWIGYINPSTGYAEYNQKFKDKATLTADKSSSTAYMQLSSLTSEDSAVYYCARLRFGSSGFAYWGQGTLVTVSSAKTTPPSVYPLAPGSAAQTNSMVTLGCLVKGYFPEPVTVTWNSGSLSSGVHTFPAVLQSDLYTLSSSVTVPSSTWPSETVTCNVAHPASSTKVDKKIVPRDCGCKPCICTVPEVSSVFIFPPKPKDVLTITLTPKVTCVVVDISKDDPEVQFSWFVDDVEVHTAQTQPREEQFNSTFRSVSELPIMHQDWLNGKEFKCRVNSAAFPAPIEKTISKTKGRPKAPQVYTIPPPKEQMAKDKVSLTCMITDFFPEDITVEWQWNGQPAENYKNTQPIMDTDGSYFIYSKLNVQKSNWEAGNTFTCSVLHEGLHNHHTEKSLSHSPGK
light: QIVLTQSPSSLAVSVGEKVTMS[about 80 residues not printed][about 120 residues not printed]
B2 had an absorbance of 2.75.

For the origin of these results see patent US20250296984A1, “THERAPEUTIC AND DIAGNOSTIC AGENTS AND USES THEREOF” (priority 2022, published 2025).
